{
  "source": "PubChem BioAssay AID445",
  "about": "(National Center for Advancing Translational Sciences (NCATS), 2006)",
  "note": "Screen size: about 110,000 compounds; about 40 (0.04%) were called active. This list was built around the results that the source calls inconclusive (neither active nor inactive); the mix of calls is not that of the screen. Calls come from the whole dose curve; as a rule, active = well fitted curve in the direction sought with a large enough effect in the signal ratio (not every such curve was filed as active); inconclusive = small, poorly fitted or top-dose-only effect, or a change in a side signal; inactive = flat fitted curve, though single readings scatter; the % refers to the signal ratio. A potency beside an inconclusive call is a rough fit, not a confirmed value. Potency is the fitted concentration of half-maximal effect.",
  "data": [
    {"test": "IkB Signaling;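 for IkBa stabilization activation: 0% = basal untreated cells and 100% = reference inhibitor full response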", "conditions": "ABC-DLBCL IkBa-CBG/CBR dual luciferase ratio (green luciferase fused to IkBa over red control in OCI-Ly3 lymphoma cells), 4 h; IkBa stabilization activation: at 57.1 µM (top of the series), scaled: untreated 0%, proteasome inhibitor 100% unless noted", "how_it_was_run": "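In this assay, an IκBα–CBG68 fusion accumulates when IKK-driven degradation is blocked; native CBR normalizes for cell number. OCI-Ly3 cells were treated 4 h with compound and doxycycline, then green and red light read after Chroma-Glo addition.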", "values": [
      {"smiles": "Cn1nc(-c2ccc(Cl)cc2)c2cc(C(=O)N3CCOCC3)sc21", "IkBa stabilization activation": "inactive: -1.74%"},
      {"smiles": "O=C(OCc1nc2ccccc2s1)C1CCN(C2=NS(=O)(=O)c3ccccc32)CC1", "IkBa stabilization activation": "inconclusive: 8.59% [signal inhibitor]"},
      {"smiles": "CCOC(=O)c1cccc(NC(=O)c2cnc(N3CCCCC3)c3ccccc23)c1", "IkBa stabilization activation": "inconclusive: 3.12% [signal inhibitor]"},
      {"smiles": "Cc1ccc(CNC(=O)CN2CCCN(Cc3ccc(F)cc3)S2(=O)=O)cc1", "IkBa stabilization activation": "inconclusive: 1.04% [signal inhibitor]"},
      {"smiles": "COc1ccc(-c2noc(CCC(=O)N3CCN(c4cccc(C(F)(F)F)c4)CC3)n2)cc1", "IkBa stabilization activation": "inconclusive: 12.2% [signal inhibitor]"},
      {"smiles": "O=C(COc1ccccc1F)Nc1ccc(Cl)c(-c2nc3ccccc3[nH]2)c1", "IkBa stabilization activation": "inconclusive: 1.71% [signal inhibitor]"},
      {"smiles": "CCn1c(SC)nnc1-c1sc2cc(Cl)ccc2c1Cl", "IkBa stabilization activation": "inconclusive: -0.623% [signal inhibitor]"},
      {"smiles": "Clc1cccc2sc(N3CCN(c4ccccc4)CC3)nc12", "IkBa stabilization activation": "inconclusive: -1.18% [signal activator]"},
      {"smiles": "O=C(NCCS(=O)(=O)N1CCN(c2cccc(Cl)c2)CC1)c1cc(=O)c2ccccc2o1", "IkBa stabilization activation": "inconclusive: 0.967% [signal inhibitor]"},
      {"smiles": "CCC(=O)N1CCc2cc(S(=O)(=O)NCCC(=O)Nc3ccc(OC)c(OC)c3)ccc21", "IkBa stabilization activation": "inactive: -2.04%"},
      {"smiles": "COc1ccccc1N(C(C)=O)C1SC(=O)N(c2ccccc2)C1=O", "note": "(centres undefined)", "Potency": "inconclusive: 12.6 µM [signal inhibitor, partial curve]"},
      {"smiles": "COc1cc(-c2nnn(CC(=O)NCc3ccccc3)n2)cc(OC)c1OC", "IkBa stabilization activation": "inconclusive: 0.667% [signal inhibitor]"},
      {"smiles": "CCn1c(=S)sc2c(=O)n(-c3ccccc3)c(SCC(=O)NCc3ccco3)nc21", "IkBa stabilization activation": "inconclusive: 7.72% [signal inhibitor]"},
      {"smiles": "Clc1ccccc1-c1nccc(NCCN2CCOCC2)n1", "IkBa stabilization activation": "inactive: -0.328% [at 11.4 µM, scaled: untreated 0%, proteasome inhibitor 100%]"},
      {"smiles": "CCOc1ccc(-c2cc(C(=O)N3CCN(c4ccc(C)cc4)C(C)C3)c3ccccc3n2)cc1", "note": "(centres undefined)", "IkBa stabilization activation": "inactive: -2.03%"},
      {"smiles": "Cc1cccc(N2CCN(c3ncnc4c3c(-c3ccccc3)cn4-c3ccccc3)CC2C)c1", "note": "(centres undefined)", "IkBa stabilization activation": "inconclusive: -0.73% [signal inhibitor]"},
      {"smiles": "COc1ccccc1NC(=O)c1nc(SCc2ccc(F)cc2)ncc1Cl", "IkBa stabilization activation": "inactive: 0.00717%"},
      {"smiles": "CC(=O)N1c2c(cc(Br)cc2S(=O)(=O)NCC2COc3ccccc3O2)CC1C", "note": "(centres undefined)", "IkBa stabilization activation": "inconclusive: 5.4% [signal inhibitor]"},
      {"smiles": "Cc1cccc(-c2nc(CS(=O)CC(=O)NCCCSC3CCCCC3)c(C)o2)c1", "note": "(centres undefined)", "IkBa stabilization activation": "inconclusive: 12.8% [signal inhibitor]"},
      {"smiles": "COc1cc(NC(=O)c2cc(-c3cccc(Cl)c3)on2)c(OC)cc1Cl", "IkBa stabilization activation": "inconclusive: 3.95% [signal inhibitor]"},
      {"smiles": "Cc1ccc(N(CC(=O)N2CCN(c3cc(Cl)ccc3C)CC2)S(=O)(=O)c2c(C)noc2C)cc1", "IkBa stabilization activation": "inconclusive: -0.106% [signal inhibitor]"},
      {"smiles": "COc1ccc(NC(=O)c2sc3nc(C)c(C(=O)Nc4ccc(C)cc4C)c(-c4cccs4)c3c2N)cc1", "IkBa stabilization activation": "inconclusive: 0.317% [signal inhibitor]"},
      {"smiles": "Cc1cc(NC(=O)c2cc3ccccc3o2)cc(C)c1OCC(=O)N1CCOCC1", "IkBa stabilization activation": "inactive: -3.66%"},
      {"smiles": "COc1ccc(OC)c(NC(=O)c2sc3nc4c(cc3c2N)CCCCCC4)c1", "Potency": "inconclusive: 31.6 µM [signal inhibitor, single point]"},
      {"smiles": "c1ccc(OCc2nn3c(-c4n[nH]c5c4CCC5)nnc3s2)cc1", "IkBa stabilization activation": "inactive: -3.79%"},
      {"smiles": "Cc1ccc(C)c(N2CCN(C(c3ccc(F)cc3)c3nnc(-c4ccccc4)o3)CC2)c1", "note": "(centres undefined)", "IkBa stabilization activation": "inconclusive: 6.54% [signal inhibitor]"},
      {"smiles": "CN(C)CCNS(=O)(=O)c1ccc(Cl)cc1", "IkBa stabilization activation": "inconclusive: 11.3% [signal inhibitor]"},
      {"smiles": "Cc1ccccc1CSc1cn(CC(=O)N2CCCC2)c2ccccc12", "IkBa stabilization activation": "inconclusive: 7.55% [signal inhibitor]"},
      {"smiles": "CC(=O)c1ccc(N2CCN(C(=O)Cn3ncc4c3-c3ccccc3OC4)CC2)cc1", "IkBa stabilization activation": "inconclusive: 0.433% [signal inhibitor]"},
      {"smiles": "COc1ccccc1/C=C/c1nc(C#N)c(NC(C)c2ccccc2)o1", "note": "(centres undefined)", "IkBa stabilization activation": "inconclusive: 1.33% [signal inhibitor]"},
      {"smiles": "CCOc1ccc(NC(=O)c2cnn3c(C(F)F)cc(-c4ccc(C)cc4)nc23)cc1", "IkBa stabilization activation": "inactive: 1.14%"},
      {"smiles": "CC(C)c1cc(C(=O)Nc2cccc(Cl)c2)no1", "Potency": "inconclusive: 25.1 µM [signal inhibitor, partial curve]"},
      {"smiles": "CCOC(=O)c1[nH]c(C)c(C(=O)Nc2cc(OC)ccc2OC)c1C", "IkBa stabilization activation": "inactive: 1.17%"},
      {"smiles": "CCc1ccc(Sc2cc(C(=O)NCCCN3CCCC(C)C3)c3ccccc3n2)cc1", "note": "(centres undefined)", "IkBa stabilization activation": "inconclusive: 1.09% [signal inhibitor]"},
      {"smiles": "Cc1ccccc1CCNCc1c(C(=O)O)c(C)n(Cc2c(F)cccc2Cl)c1C", "IkBa stabilization activation": "inconclusive: 1.07% [signal inhibitor]"},
      {"smiles": "Cc1ccc(-n2ncc(C(=O)N3CCN(C4CCCCC4)CC3)c2C2CCN(C(=O)OC(C)(C)C)CC2)cc1", "IkBa stabilization activation": "inconclusive: -1.23% [signal inhibitor]"},
      {"smiles": "COc1cccc(OCCn2cc(C(=O)c3ccco3)c3ccccc32)c1", "IkBa stabilization activation": "inconclusive: 10.3% [signal inhibitor]"},
      {"smiles": "CCCCCCNc1ncnc2c1sc1nc(N3CCOCC3)c3c(c12)CCCC3", "IkBa stabilization activation": "inactive: 0.00639%"},
      {"smiles": "O=C(O)C1CC(=O)N(Cc2ccccc2)C1", "note": "(centres undefined)", "IkBa stabilization activation": "inactive: 2.22%"},
      {"smiles": "CCOc1ccc(S(=O)(=O)n2c(C)nc3ccccc32)cc1", "IkBa stabilization activation": "inactive: 0.0873%"},
      {"smiles": "Cc1oc2ccc(O)c(CN3CCN(Cc4ccccc4)CC3)c2c1C(=O)Nc1cccc(Cl)c1C", "IkBa stabilization activation": "inconclusive: 1.52% [signal inhibitor]"},
      {"smiles": "O=C(Nc1ccc(Oc2ccccc2)cc1)C1CCN(S(=O)(=O)c2ccccc2)CC1", "IkBa stabilization activation": "inconclusive: 16% [signal inhibitor]"},
      {"smiles": "O=C(CCCN=C1NS(=O)(=O)c2ccccc21)OCC(=O)N1CCc2ccccc21", "IkBa stabilization activation": "inactive: 0.563%"},
      {"smiles": "O=S(=O)(NC(=NC1CCCC1)C(F)(F)F)c1ccccc1", "IkBa stabilization activation": "inactive: 1.13%"},
      {"smiles": "CCOC(=O)c1ccc(NC(=O)c2ccc3c(c2)CCN3S(=O)(=O)c2ccc(Cl)cc2)cc1", "IkBa stabilization activation": "inconclusive: 0.501% [signal inhibitor]"},
      {"smiles": "COc1ccc(CNC(=O)c2cc(Nc3ccc(OC)cc3OC)nc3ccccc23)cc1", "IkBa stabilization activation": "inconclusive: -1.8% [signal inhibitor]"},
      {"smiles": "COc1cc2[nH]c(=O)n(Cc3ccc(C(=O)N4CCN(c5cccc(C)c5C)CC4)cc3)c(=O)c2cc1OC", "IkBa stabilization activation": "inactive: 5.87%"},
      {"smiles": "O=C(Nc1ccc(O)c(-c2nc3ccccc3o2)c1)c1cccs1", "IkBa stabilization activation": "inactive: -0.323%"},
      {"smiles": "Cc1ccc(C)c(CN2C(=O)c3ccccc3Sc3ccc(C(=O)NCCCOC(C)C)cc32)c1", "IkBa stabilization activation": "inconclusive: 2.84% [signal inhibitor]"},
      {"smiles": "O=C(CSc1n[nH]c(-c2ccccc2Cl)n1)N1CCN(c2ccc(F)cc2)CC1", "IkBa stabilization activation": "inconclusive: -1.08% [signal inhibitor]"},
      {"smiles": "O=c1nc2c(-c3ccccc3F)n[nH]n2c2ccccc12", "Potency": "inconclusive: 0.794 µM [signal inhibitor, full curve]"},
      {"smiles": "COC(=O)c1cc(Cl)ccc1NC(=O)Cn1c(C)cc(C)c(C#N)c1=O", "IkBa stabilization activation": "inconclusive: 16.6% [signal inhibitor]"},
      {"smiles": "CC(C)NC(=O)c1nn(C)c2c1CS(=O)(=O)c1ccccc1-2", "IkBa stabilization activation": "inconclusive: -0.135% [signal inhibitor]"},
      {"smiles": "CCOC(=O)N1CCC(N(CCOC)C(=O)Nc2ccc(Cl)c(Cl)c2)CC1", "IkBa stabilization activation": "inconclusive: 3.23% [signal inhibitor]"},
      {"smiles": "CCOC(=O)Cc1cnc(NC(=O)Cn2nnc(-c3ccc(OCC)cc3)n2)s1", "IkBa stabilization activation": "inconclusive: 4.33% [signal inhibitor]"},
      {"smiles": "Clc1ccc(CN2CCc3nc(Nc4ccc5c(c4)OCCO5)ncc3C2)cc1", "IkBa stabilization activation": "inconclusive: 4.29% [signal inhibitor]"},
      {"smiles": "Cc1cc(C(=O)Nc2nnc(C(F)(F)F)s2)no1", "Potency": "inconclusive: 25.1 µM [signal inhibitor, partial curve]"},
      {"smiles": "CCOc1ccccc1CN(CCc1ccc2c(c1)OCO2)Cc1cc(OC)c(OC)cc1OC", "IkBa stabilization activation": "inconclusive: 0.852% [signal inhibitor]"},
      {"smiles": "Cc1ccccc1C(=O)NCc1ccc2c(c1)CCN2C(=O)c1ccccc1", "IkBa stabilization activation": "inconclusive: 4.68% [signal inhibitor]"},
      {"smiles": "CCOC(=O)N1CCC(NC(=O)c2cnn(-c3cccc(C)c3)c2C2CCN(C(=O)OC(C)(C)C)CC2)CC1", "IkBa stabilization activation": "inconclusive: -0.208% [signal inhibitor]"},
      {"smiles": "COc1ccc(CNC(=O)C(=O)NCC(c2cccs2)S(=O)(=O)c2ccc(C)cc2)cc1", "note": "(centres undefined)", "IkBa stabilization activation": "inconclusive: 1.29% [signal inhibitor]"},
      {"smiles": "O=C(c1ccc(F)cc1)N1c2ncnn2C2(CCCCC2)[C@@H]2CCCC[C@@H]21", "IkBa stabilization activation": "inconclusive: -3.28% [signal inhibitor]"},
      {"smiles": "CC1(C)Cc2c(c(N3CCOCC3)nc3sc(C(=O)N4CCCCC4)c(N)c23)CO1", "IkBa stabilization activation": "inactive: -3.35%"},
      {"smiles": "O=C(Cn1cnc2c(oc3ccccc32)c1=O)N1CCCc2ccccc21", "IkBa stabilization activation": "inactive: -0.854%"},
      {"smiles": "CCn1c(SCC(=O)Nc2cccc(Cl)c2)nnc1-c1nonc1NC(C)=O", "IkBa stabilization activation": "inconclusive: 2.83% [signal inhibitor]"},
      {"smiles": "Cc1ccc(-c2nsc(NC(=O)c3oc4cc(C)c(Cl)cc4c3C)n2)cc1", "IkBa stabilization activation": "inactive: -2.31%"},
      {"smiles": "CCSC1=NC2(CCN(C(=O)NC3CCCCC3)CC2)N=C1c1ccc(C)c(C)c1", "IkBa stabilization activation": "inconclusive: -1.91% [signal inhibitor]"},
      {"smiles": "Cc1noc(C)c1S(=O)(=O)NCCc1csc2nc(-c3ccc(F)cc3)nn12", "IkBa stabilization activation": "inconclusive: 1.11% [signal inhibitor]"},
      {"smiles": "COc1ccc(OC)c(NC(=O)CCc2c(C)nc3c(-c4ccccc4)c(C)nn3c2C)c1", "IkBa stabilization activation": "inconclusive: 8.03% [signal inhibitor]"}
    ]}
  ]
}
